Test results as given in PubChem BioAssay AID360 (National Center for Advancing Translational Sciences (NCATS), 2006).
The whole screen tested about 48,000 compounds, of which about 550 (1.1%) were called active. Inconclusive results (about 4%) are left out. Rule as the data show it: active = potency below about 15 µM; inconclusive = mostly about 16 µM to 33 µM; inactive = weaker than that. The list shows a part of the results.

Each compound was assayed against Lysosomal acid glucosylceramidase (Homo sapiens) (UniProt P04062) (assay: Glucocerebrosidase). Conditions: purified enzyme, resorufin glucoside fluorescence (screen aimed at inhibitors), 20 min.
How it was run: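 Compounds titrated against 0.2 nM normal enzyme, 30 uM resorufin beta-D-glucopyranoside substrate, citrate/phosphate buffer with taurocholate and tween-20, pH 5.9. Reaction ran 20 min at room temperature; fluorescence (Ex 548/Em 600) gave AC50.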
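Also: the screen sought inhibitors.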
Potency is read from the fitted curve at half-maximal effect.

UniProt P04062, sequence (P04062 whole entry, looked up): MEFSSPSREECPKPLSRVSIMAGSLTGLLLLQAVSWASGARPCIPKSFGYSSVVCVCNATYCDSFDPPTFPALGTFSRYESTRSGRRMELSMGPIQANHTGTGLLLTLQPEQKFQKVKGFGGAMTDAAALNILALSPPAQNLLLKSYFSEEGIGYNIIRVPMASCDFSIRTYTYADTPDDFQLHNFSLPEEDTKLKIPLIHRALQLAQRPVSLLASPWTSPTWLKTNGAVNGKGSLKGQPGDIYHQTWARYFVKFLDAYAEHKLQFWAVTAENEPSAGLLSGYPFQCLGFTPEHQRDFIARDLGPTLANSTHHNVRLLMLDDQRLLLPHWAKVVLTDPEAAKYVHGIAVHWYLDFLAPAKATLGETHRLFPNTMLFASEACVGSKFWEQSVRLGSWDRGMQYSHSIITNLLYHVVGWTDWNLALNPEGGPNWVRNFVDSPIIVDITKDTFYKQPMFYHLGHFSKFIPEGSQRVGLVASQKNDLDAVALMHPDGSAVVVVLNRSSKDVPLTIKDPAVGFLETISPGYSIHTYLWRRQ

Row | SMILES | Potency
1 | O=C(c1ccccc1NS(=O)(=O)c1ccc(Br)s1)N1CCCC1 | inactive: > 76.9 µM
2 | Cn1cnnc1SCC(=O)Nc1ccccc1Sc1ccccc1 | inactive: > 76.9 µM
3 | Cc1nn(-c2ccccc2)c2c1/C(=N/O)CC(C)(C)C2 | inactive: > 76.9 µM
4 | Nn1c(SCC(=O)Nc2ccc(F)cc2F)nnc1-c1cccnc1 | inactive: > 76.9 µM
5 | CC(C)N(Cc1nc(-c2ccccc2)no1)C(=O)c1ccc2c(c1)OCO2 | inactive: > 76.9 µM
6 | Cc1ccc(C(=O)O)cc1S(=O)(=O)N1CCC(C(=O)O)CC1 | inactive: > 76.9 µM
7 | O=C1c2ccccc2C(=O)N1c1ccccc1S(=O)C(F)(F)F (configuration not stated) | inactive: > 76.9 µM
8 | Cc1ccc(N2C(=O)c3ccc(N)cc3C2=O)cc1 | inactive: > 76.9 µM
9 | O=C(CN1CCN(c2ccccn2)CC1)NC(=O)NC1CCCCC1 | inactive: > 76.9 µM
10 | O=C(C1CCN(S(=O)(=O)c2cnc[nH]2)CC1)N1CCc2ccccc2C1 | inactive: > 76.9 µM
11 | CC1=C(C(=O)OCCOC(C)C)C(c2cc3c(cc2Br)OCO3)C2=C(CCCC2=O)N1 (configuration not stated) | active: 11 µM
12 | Cc1cc(C)cc(OCC(=O)NCCN2CCOCC2)c1 | inactive: > 76.9 µM
13 | CCCc1c(C)c2ccc(OCC(C)=O)cc2oc1=O | inactive: > 76.9 µM
14 | COc1ccc(CC(=O)NCc2ccccc2)cc1S(=O)(=O)N1CCOCC1 | inactive: > 76.9 µM
15 | COC(=O)CC1C(=O)NCCN1C(=O)c1ccccc1 (configuration not stated) | inactive: > 76.9 µM
16 | Cc1c(C)[n+](=O)c2c(n1[O-])CCCCC2 | inactive: > 76.9 µM
17 | CCCc1nn(C)c2c1C(c1ccncc1)C(C#N)=C(N)O2 (configuration not stated) | inactive: > 76.9 µM
18 | CS(=O)(=O)N1CCN(C2CCN(Cc3ccccc3)CC2)CC1 | inactive: > 76.9 µM
19 | Cc1nc2nc(CSc3nc4ccccc4s3)cc(=O)n2[nH]1 | inactive: > 76.9 µM
20 | CC1(C)Cc2ccccc2-c2nnc(SCC(=O)N3CCN(c4ccccc4)CC3)n21 | inactive: > 76.9 µM
21 | O=c1cnc2ccccc2n1CC1CCCCC1 | inactive: > 76.9 µM
22 | COc1cccc(C=Nc2cc(C)on2)c1O | inactive: > 76.9 µM
23 | COc1ccc(-c2ccc(=O)[nH]n2)cc1 | inactive: > 76.9 µM
24 | Cc1ccc(Nc2nc(CSc3nnnn3-c3ccccc3)cc(=O)[nH]2)cc1 | inactive: > 76.9 µM
25 | O=C1c2ccccc2C(=O)N1CCSc1nncs1 | inactive: > 76.9 µM
26 | O=C1CC(c2ccco2)c2ccc3ccccc3c2N1 (configuration not stated) | inactive: > 76.9 µM
27 | COc1ccc2[nH]c(=O)c(CN(Cc3cccnc3)C(=O)Nc3ccccc3)cc2c1 | inactive: > 76.9 µM
